B1: binding peptide 2-Ferritin fusion protein Ferritin-4C (other)
chain: MHHHHHHGGSDS[… about 80 residues …]GKATKGDAHISGGSGGDIIKLLNEQVNKEMNSSNLYMSMSSWCYTHSLDGAGLFLFDHAAEEYEHAKKLIIFLNENNVPVQLTSISAPEHKFEGLTQIFQKAYEHEQHISESINNIVDHAIKSKDHATFNFLQWYVAEQHEEEVLFKDILDKIELIGNENHGLYLADQYVKGIAKSRKS
B2: binding peptide 2-AP205 fusion protein AP205-4C (other)
chain: MGSSHHHHHHGSGDS[… about 80 residues …]GKATKGDAHIGSGGSGGSGANKPMQPITSTANKIVWSDPTRLSTTFSASLLRQRVKVGIAELNNVSGQYVSVYKRPAPKPEGCADACVIMPNENQSIRTVISGSAENLATLKAEWETHKRNVDTLFASGNAGLGFLDPTAAIVSSDTTA

Tests used:
[1] = biological target: T1, VZV gE-binding peptide 1 fusion protein VZV gE-4T with linker peptide 1 (G4S)3 (varicella-zoster virus); assay: SDS-PAGE, DLS, TEM of the binding product
T1 construct: Expressed in CHO cells, without signal peptide; also called antigenic component

[2] = biological target: T2, VZV gE-binding peptide 1 fusion protein VZV gE-4T with linker peptide 1 (EAAAK)3 (varicella-zoster virus); assay: SDS-PAGE, DLS, TEM of the binding product
T2 construct: Expressed in CHO cells; also called antigenic component

[3] = biological target: T1, VZV gE-binding peptide 1 fusion protein …; assay: covalent conjugation, mixed 2:1, 22 C for 24 h; SDS-PAGE, DLS, TEM
[4] = biological target: T2, VZV gE-binding peptide 1 fusion protein …; assay: as above

| Binder | binding result [1] | binding result [2] | binding result [3] | binding result [4] |
| --- | --- | --- | --- | --- |
| B1 | binds | binds |  |  |
| B2 |  |  | binds | binds |

Reference: patent US20260232794A1 (YANTAI PATRONUS BIOTECH, published 2026)
